Source: PubChem BioAssay AID1476 (National Center for Advancing Translational Sciences (NCATS), 2009)
Hit rate of the full screen: of about 200,000 compounds, about 4,500 (2.2%) were called active. The shares of active, inactive and inconclusive entries below differ from those in the screen. The call rests on the fitted dose curve; in most records, active means well fitted inhibition curve with a large enough effect; inconclusive means small, poorly fitted or top-dose-only effect, or effect the other way; inactive means flat fitted curve, though single readings scatter. Where the call is inconclusive, the potency comes from a doubtful curve fit.

biological target: Cruzipain (Trypanosoma cruzi) (UniProt P25779); assay: qHTS Assay for Promiscuous and Specific Inhibitors of Cruzain (without detergent); conditions: purified cruzain, Z-FR-AMC fluorescence, no detergent; further: nearly all actives have a fitted effect of over 40% in size;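 on max response, negative = inhibition: plate controls were enzyme without inhibitor for no effect and buffer without enzyme for full effect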
UniProt P25779, sequence (P25779 whole entry, looked up): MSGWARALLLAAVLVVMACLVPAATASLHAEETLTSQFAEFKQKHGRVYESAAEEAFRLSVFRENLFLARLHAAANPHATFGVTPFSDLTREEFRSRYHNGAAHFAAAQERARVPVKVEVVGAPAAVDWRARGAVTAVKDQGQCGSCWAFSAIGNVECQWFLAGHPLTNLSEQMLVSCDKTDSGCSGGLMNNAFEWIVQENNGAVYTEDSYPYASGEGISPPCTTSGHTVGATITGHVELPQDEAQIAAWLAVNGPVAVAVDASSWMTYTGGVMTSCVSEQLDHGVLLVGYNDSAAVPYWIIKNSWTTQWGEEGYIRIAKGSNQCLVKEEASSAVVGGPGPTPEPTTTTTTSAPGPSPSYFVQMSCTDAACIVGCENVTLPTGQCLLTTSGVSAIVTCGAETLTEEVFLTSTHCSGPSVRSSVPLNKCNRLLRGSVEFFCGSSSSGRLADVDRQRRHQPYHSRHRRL
In short: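 Detergent-free condition (0.00005% Triton X-100) in acetate buffer pH 5.5 with DTT. 1.5 nM enzyme and compound were pre-mixed 15 min, then 2 uM Z-FR-AMC substrate added; reaction progress from fluorescence change between first and third reads (60 s).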
Potency means the concentration at half of the fitted maximal effect; tags describe the fitted curve by direction and shape.

Question: With `Cc1oc2ccc(O)c(CN3CCCCC3)c2c1C(=O)Nc1cccc(C(F)(F)F)c1` as the compound, how does the Potency read?
Answer: inconclusive: 39.8 µM [inhibitor, single point]

Question: How did the Potency turn out when `C=CCN1C(c2cccc(C(F)(F)F)c2)=CS/C1=C(/C#N)c1nnc(N2CCOCC2)n1-c1ccccc1` was run?
Answer: inconclusive: 20 µM [activator, partial curve]

Question: `CCOc1ccc(C(=O)NCC(c2ccc3c(c2)OCO3)N2CCOCC2)cc1` (stereo unspecified) was tested. Which max response, negative = inhibition did it give?
Answer: inactive: 4.8%

Question: How did the Potency turn out when `Cc1ccc(S(=O)(=O)Oc2ccc(/C=C(/NC(=O)c3ccccc3)C(=O)Nc3ccccc3)cc2)cc1` was run?
Answer: active: 12.6 µM

Question: Which max response, negative = inhibition does the source give for `O=C(CCc1nc2cccnc2n1-c1ccccc1)Nc1ccc(Cl)c(Cl)c1` here?
Answer: inactive: -0.46%

Question: How did the max response, negative = inhibition turn out when `COc1cc(NC(=O)CCc2nc3cccnc3n2Cc2cccs2)cc(OC)c1OC` was run?
Answer: inactive: 24.3%

Question: For `CCc1ccc(OCc2nc(-c3ccc(OC)c(OC)c3)no2)c(Br)c1`, which Potency is on record?
Answer: inconclusive: 31.6 µM [activator, single point]

Question: For `O=C(COC(=O)CNC(=O)c1ccccc1)Nc1nc(-c2ccccc2)cs1`, which Potency is on record?
Answer: inconclusive: 20 µM [inhibitor, single point]

Question: How did the Potency turn out when `CCc1ccc(NC(=O)Cn2nnc(C(=O)NCc3ccc(C)cc3)c2N)cc1` was run?
Answer: active: 20 µM

Question: For `COc1ccc(CNC(=O)c2ccc(NC(=O)CC3SC(N4CCCCC4)=NC3=O)cc2)cc1` (stereo unspecified), which Potency is on record?
Answer: inconclusive: 31.6 µM [activator, single point]

Question: With `CC(=O)c1cccc(NC(=O)COC(=O)[C@@H](NC(=O)OCc2ccccc2)C(C)C)c1` as the compound, how does the Potency read?
Answer: active: 25.1 µM

Question: How did the max response, negative = inhibition turn out when `CCc1ccccc1N(C)C(=O)c1cn(-c2cccc(OC)c2)c(=O)c2ccccc12` was run?
Answer: inactive: 6.88%

Question: `CC(=O)Nc1ccc(NC(=O)c2ccc3c(c2)NC(=O)c2ccccc2S3)cc1` was tested. Which max response, negative = inhibition did it give?
Answer: inactive: 19.5%

Question: With `Cc1cc(C(=O)COC(=O)c2ccc(CO)cc2)c(C)n1CC1COc2ccccc2O1` (stereo unspecified) as the compound, how does the Potency read?
Answer: inconclusive: 31.6 µM [inhibitor, single point]

Question: Which Potency does the source give for `O=C1c2ccccc2C(=O)N1OS(=O)(=O)c1ccccc1` here?
Answer: active: 7.94 µM

Question: For `O=S(=O)(c1ccc2nc(-c3ccco3)c(-c3ccco3)nc2c1)N1CCOCC1`, which max response, negative = inhibition is on record?
Answer: inactive: 0.905%

Question: Which Potency does the source give for `Cc1ccc2nc(NC(=O)/C=C/c3ccc4c(c3)OCO4)sc2c1` here?
Answer: inconclusive: 6.31 µM [inhibitor, single point]

Question: For `COCCCn1c(Cc2csc(Nc3cccc(Cl)c3)n2)nnc1SCC(=O)OC`, which Potency is on record?
Answer: inconclusive: 39.8 µM [activator, single point]

Question: Which Potency does the source give for `CC(=O)Nc1ccc(SCC(=O)c2cc(C)n(Cc3cccs3)c2C)cc1` here?
Answer: inconclusive: 31.6 µM [activator, single point]

Question: For `CCOc1cc(CN2CCN(S(=O)(=O)c3ccc(C)cc3)CC2)ccc1OC`, which max response, negative = inhibition is on record?
Answer: inactive: 14.5%

Question: `COc1cc(OC)c(S(=O)(=O)N2CCCCC2)cc1S(=O)(=O)N1CCCCC1` was tested. Which Potency did it give?
Answer: inconclusive: 31.6 µM [activator, single point]

Question: Which max response, negative = inhibition does the source give for `CCCn1c(CNC(=O)c2cccs2)nc2ccccc21` here?
Answer: inactive: 6.76%

Question: `Nc1ccc(-c2nc3c(Cl)c(N)ccc3[nH]2)cc1` was tested. Which Potency did it give?
Answer: active: 31.6 µM

Question: With `Nc1[nH]c(=S)[nH]c(=O)c1N=Nc1c(Br)cc(S(N)(=O)=O)cc1Br` as the compound, how does the max response, negative = inhibition read?
Answer: inactive: 1.19%

Question: Which max response, negative = inhibition does the source give for `Cc1cc(C)cc(NS(=O)(=O)c2ccc(N3CCCCS3(=O)=O)cc2)c1` here?
Answer: inactive: 8.71%

Question: `CCOC(=O)c1sc(-c2ccccc2)cc1NC(=O)Nc1ccccc1` was tested. Which Potency did it give?
Answer: inconclusive: 31.6 µM [inhibitor, single point]

Question: Which Potency does the source give for `Cc1ccc(O)c(C2=Nc3ccccc3N=C(c3cccs3)C2)c1` here?
Answer: inconclusive: 31.6 µM [inhibitor, single point]

Question: `CN(Cc1ccc(F)cc1)S(=O)(=O)c1nnc(NC(=O)c2ccccc2Cl)s1` was tested. Which Potency did it give?
Answer: inconclusive: 25.1 µM [inhibitor, single point]

Question: How did the max response, negative = inhibition turn out when `Cn1nnnc1SCCCNCc1ccc(-c2ccc(F)c(Cl)c2)o1` was run?
Answer: inactive: -15.5%

Question: `CCOC(=O)N1CCN(C(=O)CSc2nnc(-c3cc(OC)cc(OC)c3)o2)CC1` was tested. Which Potency did it give?
Answer: inconclusive: 20 µM [activator, single point]

Question: With `CC1CCCN(S(=O)(=O)c2cccc(-c3cn4cccnc4n3)c2)C1` (stereo unspecified) as the compound, how does the Potency read?
Answer: inconclusive: 3.98 µM [activator, single point]

Question: With `O=C(Nc1ccc2nn(-c3ccccc3)nc2c1)c1cccs1` as the compound, how does the Potency read?
Answer: inconclusive: 25.1 µM [inhibitor, partial curve, poor fit]

Question: Which max response, negative = inhibition does the source give for `Cc1cc(C)cc(Nc2cc(C(=O)NC3CCC(C)CC3)c3ccccc3n2)c1` (stereo unspecified) here?
Answer: inactive: -5.15%

Question: With `N#C/C(=C\c1cn(Cc2ccccc2F)c2ccccc12)C(=O)NCc1ccco1` as the compound, how does the max response, negative = inhibition read?
Answer: inactive: -2.67%

Question: `O=C(COC(=O)c1ccc(S(=O)(=O)N2CCOCC2)cc1)Nc1nc(-c2ccccc2)cs1` was tested. Which Potency did it give?
Answer: inconclusive: 39.8 µM [inhibitor, single point]

Question: `CCOC(=O)N1CCC(NC(=O)c2cnn(-c3ccc(F)cc3F)c2C2CCN(C(=O)OC(C)(C)C)CC2)CC1` was tested. Which Potency did it give?
Answer: inconclusive: 3.98 µM [activator, single point]

Question: `CCOc1ccc(N2CC(O)Cn3c2nc2c3c(=O)n(CCCc3ccccc3)c(=O)n2C)cc1` (stereo unspecified) was tested. Which Potency did it give?
Answer: inconclusive: 25.1 µM [activator, single point]

Question: Which Potency does the source give for `Cc1ccc(C(=O)/C=C/c2c[nH]c3ccccc23)cc1` here?
Answer: inconclusive: 15.8 µM [inhibitor, single point]

Question: For `CNc1ccc(-c2nc(-c3ccco3)no2)cc1[N+](=O)[O-]`, which Potency is on record?
Answer: inconclusive: 39.8 µM [inhibitor, single point]

Question: `CCOCCn1c(CN(Cc2ccccc2)Cc2ccccc2)nc2c1c(=O)n(C)c(=O)n2C` was tested. Which Potency did it give?
Answer: inconclusive: 20 µM [activator, partial curve]

Question: For `COc1ccc(-n2c(SCC(=O)Nc3ccc4c(c3)OCO4)nc3ccccc3c2=O)cc1`, which Potency is on record?
Answer: inconclusive: 39.8 µM [inhibitor, single point]

Question: `C=C(C)Cn1c(CCNC(=O)CCC)nc2ccccc21` was tested. Which Potency did it give?
Answer: active: 15.8 µM

Question: Which max response, negative = inhibition does the source give for `COC(=O)N1C(c2ccccc2)=Cc2ccccc2C1C1(C(=O)OC)CCCC1=O` (stereo unspecified) here?
Answer: inactive: -1.73%

Question: For `Cc1ccc(-c2onc3ccc(C=O)cc23)cc1`, which max response, negative = inhibition is on record?
Answer: inactive: -8.99%

Question: Which max response, negative = inhibition does the source give for `COc1ccc(C(=O)/C=C/c2ccccc2)cc1` here?
Answer: inactive: 2.9%

Question: For `O=C(C1CCCN(S(=O)(=O)c2ccc(Br)s2)C1)N1CCN(c2cccc(Cl)c2)CC1` (stereo unspecified), which Potency is on record?
Answer: inconclusive: 31.6 µM [inhibitor, single point]

Question: Which Potency does the source give for `CCOC(=O)CN(C(=O)CSc1nnc(-c2ccc(OC)c(OC)c2)o1)c1ccc(F)cc1` here?
Answer: inconclusive: 31.6 µM [activator, single point]

Question: Which Potency does the source give for `Cc1cccc(Oc2ncc(-c3ccc(Cl)cc3)cn2)c1` here?
Answer: inconclusive: 39.8 µM [inhibitor, single point]

Question: How did the Potency turn out when `CCOc1ccc(/C=C2\C(=O)c3ccccc3OC2c2ccccc2)cc1` (stereo unspecified) was run?
Answer: inconclusive: 39.8 µM [inhibitor, single point]

Question: For `C=CCn1c(SCc2cccc(F)c2)nc2cc(C(=O)N3CCC(C(N)=O)CC3)ccc2c1=O`, which Potency is on record?
Answer: inconclusive: 39.8 µM [activator, single point]

Question: `CCOC(=O)c1ccc(NC(=O)C(CC)Sc2nc3ccncc3[nH]2)cc1` (stereo unspecified) was tested. Which max response, negative = inhibition did it give?
Answer: inactive: -11.2%

Question: With `Cc1cc(C)cc(-n2c(C)cc(C(=O)C(=O)Nc3ccccc3F)c2C)c1` as the compound, how does the max response, negative = inhibition read?
Answer: inactive: -5.04%

Question: How did the max response, negative = inhibition turn out when `CCCCC/C=C\C/C=C\C/C=C\C/C=C\CCCC(=O)O[C@H](COCCCCCCCCCCCCCCCC)COP(=O)([O-])OCC[N+](C)(C)C` was run?
Answer: inactive: 20.2%

Question: Which Potency does the source give for `Cc1ccc(CN(c2ccc(C(=O)N3CCc4ccccc4C3)cc2)S(C)(=O)=O)cc1` here?
Answer: inconclusive: 25.1 µM [activator, partial curve]

Question: With `N#Cc1c(NC(=O)CSc2nnc(-c3ccco3)n2-c2ccccc2)sc2c1CCC2` as the compound, how does the Potency read?
Answer: inconclusive: 31.6 µM [inhibitor, single point]

Question: For `COc1ccc(C)cc1NC(=O)Nc1ccc(Br)cn1`, which Potency is on record?
Answer: active: 25.1 µM

Question: With `CC(C)c1ccc(OCC(=O)NCCS(=O)(=O)N2CCN(c3ccc(F)cc3)CC2)cc1` as the compound, how does the max response, negative = inhibition read?
Answer: inactive: 7.92%

Question: Which Potency does the source give for `CC1=NN=C(c2ccc(N)cc2)c2cc3c(cc2C1)OCO3` here?
Answer: inconclusive: 39.8 µM [inhibitor, single point]

Question: With `COc1ccccc1CC(NC(C)=O)C(=O)NC1CCN(c2nnnn2-c2ccccc2)CC1` (stereo unspecified) as the compound, how does the Potency read?
Answer: inconclusive: 39.8 µM [activator, single point]

Question: With `O=C(NCc1ccc2c(c1)OCO2)c1ccc2c(c1)N(Cc1ccccc1F)C(=O)c1ccccc1S2` as the compound, how does the Potency read?
Answer: inconclusive: 39.8 µM [inhibitor, single point]

Question: How did the Potency turn out when `COc1ccc(CNc2nc(-c3cccnc3)nn2C(=O)c2ccco2)cc1` was run?
Answer: inconclusive: 39.8 µM [activator, single point]

Question: How did the Potency turn out when `O=C(Oc1ccc2[nH]cc(CCN3C(=O)c4ccccc4C3=O)c2c1)c1ccco1` was run?
Answer: inconclusive: 39.8 µM [inhibitor, single point]

Question: How did the Potency turn out when `Cc1ccccc1CN1C(=O)c2ccccc2S(=O)c2ccc(C(=O)NCc3ccc(Cl)cc3)cc21` (stereo unspecified) was run?
Answer: inconclusive: 39.8 µM [inhibitor, single point]

Question: For `Cc1ccc(S(=O)(=O)N(CC(=O)N/N=C/c2cccc(Cl)c2)c2cccc3cccnc23)cc1`, which Potency is on record?
Answer: inconclusive: 39.8 µM [inhibitor, single point]

Question: `CCOCCCNC(=O)C(c1ccccc1)N(Cc1ccc2c(c1)OCO2)C(=O)c1ccc(NC(C)=O)cc1` (stereo unspecified) was tested. Which Potency did it give?
Answer: inconclusive: 31.6 µM [activator, single point]

Question: With `Cc1cc(C(=O)COC(=O)c2ccc[nH]c2=O)c(C)n1-c1ccc(Br)cc1` as the compound, how does the Potency read?
Answer: inconclusive: 31.6 µM [inhibitor, single point]
